Results reported in PubChem BioAssay AID624171 (National Center for Advancing Translational Sciences (NCATS), 2012).
The whole screen tested about 410,000 compounds, of which about 1,200 (0.29%) were called active. Inconclusive results, whose numbers are uncertain, are shown with a selection of clear calls. Calls follow the shape of the dose curve; as a rule, active = well fitted activation curve with a large enough effect; inconclusive = small, poorly fitted or top-dose-only effect; inactive = flat fitted curve, though single readings scatter. Where the call is inconclusive, the potency comes from a doubtful curve fit.

experiment: qHTS of Nrf2 Activators; conditions: AREc32 ARE-luciferase reporter (MCF7-derived line), luminescence, 24 h; series mostly up to 46.1 µM; also: nearly all actives have a fitted effect of over 65% in size
Summary of the method: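 Luminescent ARE reporter assay in AREc32_Fluc cells: overnight plating at 37 deg C, 24 hr compound incubation, Steady-Glo added, 30 min RT before reading.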
Potency is read from the fitted curve at half-maximal effect; tags tell the direction and shape of the fitted curve.

Row | Structure (SMILES) | Potency
1 | O=C1N/C(=N/N=C/c2ccco2)SC1Cc1ccccc1 (stereo not given) | inconclusive: 2.82 µM [activator, partial curve, poor fit]
2 | CCC1CN(C(=O)C2CCN(S(=O)(=O)c3c(C)noc3/C=C/c3ccccc3F)CC2)c2cc(Cl)ccc2O1 (stereo not given) | inconclusive: 14.1 µM [activator, partial curve, poor fit]
3 | Cc1ccc(Cl)cc1NC(=O)c1ccccn1 | inconclusive: 10 µM [activator, partial curve, poor fit]
4 | CC(=O)Nc1ccc(NC(=O)COC(=O)/C(=C/c2ccccc2)n2nnnc2C)cc1 | inconclusive: 28.2 µM [activator, single point]
5 | COc1ccccc1NC(=O)c1c([N+](=O)[O-])cnn1C | inconclusive: 12.6 µM [activator, partial curve]
6 | Cc1cccn2c(=O)c(C=NCCO)c(NCc3ccco3)nc12 | inconclusive: 4.47 µM [activator, partial curve, poor fit]
7 | CC(C)(C)NC(=O)CN1CCN(C(=O)CCl)CC1 | inconclusive: 25.1 µM [activator, single point]
8 | O=C(c1ccc(S(=O)(=O)c2ccccc2Cl)c([N+](=O)[O-])c1)N1CCCCCC1 | inconclusive: 17.8 µM [activator, single point]
9 | COc1cc(C=O)ccc1OCCOc1ccccc1[N+](=O)[O-] | active: 12.6 µM
10 | O=c1c2cc(-c3ccccc3)sc2nc2n1N=C(c1cccs1)CS2 | inconclusive: 1.58 µM [activator, partial curve, poor fit]
11 | Oc1c(Cl)cc(Cl)cc1/C=C/c1ccc2cccc(O)c2n1 | inconclusive: 1.78 µM [activator, partial curve, poor fit]
12 | CCN(C(=O)COC(=O)c1c(C)nn(-c2ccccc2)c1C)C1CCS(=O)(=O)C1 (stereo not given) | inactive
13 | COc1ccc(S(=O)(=O)NCCc2csc3nc(-c4ccc(Cl)cc4)nn23)cc1C | inconclusive: 2.82 µM [activator, full curve, poor fit]
14 | O=C(Nc1cc(-c2nc3ncccc3o2)ccc1Cl)c1ccco1 | active: 6.31 µM
15 | CC(C)NC(=O)NC(=O)COC(=O)/C=C/c1ccccc1[N+](=O)[O-] | inconclusive: 17.8 µM [activator, single point]
16 | Cn1ncc([N+](=O)[O-])c1C(=O)Nc1cccc2ccccc12 | inconclusive: 11.2 µM [activator, single point]
17 | NC(=O)c1oc2ccccc2c1NC(=O)c1ccco1 | inconclusive: 2 µM [activator, full curve, poor fit]
18 | CCOC(=O)NC1(NC(C)C)Oc2ccccc2O1 | inconclusive: 31.6 µM [activator, single point]
19 | CC(C)c1ccc2oc(-c3ccc(Cl)c(NC(=O)c4cccs4)c3)nc2c1 | inconclusive: 2.24 µM [activator, full curve, poor fit]
20 | Cc1ccc(C)c(CSc2nc3c([nH]c4ccccc43)c(=O)n2C)c1 | inactive
21 | Cc1ccc(C(=O)Nc2ccc(F)cc2)cc1S(=O)(=O)N1CCCCCC1 | inactive
22 | O=[N+]([O-])c1cccc2ccc(/C=C/c3ccc(Cl)cc3)nc12 | inconclusive: 1.78 µM [activator, partial curve, poor fit]
23 | O=C(CC(Nc1ccccc1)c1ccc(F)cc1)c1ccccc1 (stereo not given) | inconclusive: 35.5 µM [activator, partial curve, poor fit]
24 | O=C(Nc1nc(-c2ccncc2)cs1)c1ccco1 | inconclusive: 3.55 µM [activator, partial curve, poor fit]

Row | Structure (SMILES) | Potency
25 | Cc1ccc2oc(-c3cccc(NC(=O)c4ccc(Br)o4)c3)nc2c1 | inconclusive: 2.82 µM [activator, full curve, poor fit]
26 | O=[N+]([O-])c1ccc(Sc2ncc3ccccn23)nc1 | inconclusive: 25.1 µM [activator, single point]
27 | COc1ccc(C(O)(CC(C)C)C(CN2CCOCC2)c2ccccc2)cc1 (stereo not given) | inactive
28 | O=C(CN(Cc1ccccc1F)C(=O)Cn1nnc(-c2cccs2)n1)NC1CCCCC1 | inactive
29 | Cc1cccc(C2CC3(CC(C)(C)NC(=S)N3)Oc3cc(O)ccc32)c1 (stereo not given) | inactive
30 | COc1ccccc1CNc1nc2cc(-c3ccsc3)sc2c(=O)n1C | inconclusive: 1 µM [activator, partial curve, poor fit]
31 | Fc1ccc(Nc2c(-c3c[nH]c4ccccc34)nc3ccccn23)cc1 | inconclusive: 12.6 µM [activator, single point]
32 | CC1=C/C(=N\OS(=O)(=O)c2ccccc2)C=CC1=O | inconclusive: 35.5 µM [activator, partial curve, poor fit]
33 | CCN(c1ccccc1)S(=O)(=O)c1ccc(N2CCN(c3ccc(OC)cc3)CC2)nc1 | inactive
34 | O=C(COC(=O)/C=C/c1cccs1)Nc1ccc(F)cc1 | inconclusive: 15.8 µM [activator, single point]
35 | Oc1ccccc1C=NN=Cc1c(O)ccc2ccccc12 | inconclusive: 3.55 µM [activator, full curve, poor fit]
36 | Cc1ccc(OCCSc2nc3ccccc3n2CC(=O)NC(C)C)cc1 | inactive
37 | CCOCCCNC(=O)c1ccc2c(c1)ncn2C1CCCC1 | inactive
38 | O=[N+]([O-])c1ccc(S(=O)(=O)CC(CN2CCOCC2)N2CCOCC2)cc1 (stereo not given) | inconclusive: 15.8 µM [activator, partial curve, poor fit]
39 | N#CC1=C(N)OC2=C(CC/C2=C\c2ccccc2Cl)C1c1ccccc1Cl (stereo not given) | inconclusive: 22.4 µM [activator, single point]
40 | O=c1cc(-c2ccc(O)cc2)oc2ccccc12 | inconclusive: 2.51 µM [activator, partial curve, poor fit]
41 | COCCNC(=O)/C(C#N)=C/C=C/c1ccccc1 | inconclusive: 12.6 µM [activator, partial curve, poor fit]
42 | Cc1cccc(NC(=O)C(=O)N/N=C/c2ccncc2)c1 | inactive
43 | Cc1ccccc1C(CC(=O)c1cccs1)C(C#N)C#N (stereo not given) | inconclusive: 3.16 µM [activator, single point]
44 | Cc1c(NC(=O)c2coc(=O)c(Br)c2)c(=O)n(-c2ccccc2)n1C | inconclusive: 31.6 µM [activator, single point]
45 | CCc1ccccc1NC(=O)c1ncoc1-c1ccco1 | inconclusive: 3.16 µM [activator, full curve]
46 | Cc1ccc(C2=NNC(c3cccc(F)c3)S2)cc1 (stereo not given) | inconclusive: 3.55 µM [activator, partial curve, poor fit]
47 | COc1cccc(C(=O)/C=C/c2ccc(OCC#N)c(OC)c2)c1 | inconclusive: 5.62 µM [activator, single point]
48 | Cc1ccc(-n2nc3ccc(NC(=O)/C=C/c4ccco4)cc3n2)cc1 | inconclusive: 7.94 µM [activator, partial curve]

Row | Structure (SMILES) | Potency
49 | CCOC(=O)c1cccc(Nc2nc(C(=O)OCC)nc3ccccc23)c1 | inactive
50 | COc1cc(-c2nc3cccc(C)n3c2Nc2ccc3c(c2)OCCO3)ccc1O | inconclusive: 14.1 µM [activator, single point]
51 | CCOc1cc(-c2ccc(OC(=O)c3ccc(Cl)cc3)c(OC)c2)cc(=O)c2c(C)oc(C)c12 | inactive
52 | COc1ccc(-n2nc(C(=O)NCc3ccco3)c3c4ccccc4n(C)c3c2=O)cc1 | inconclusive: 3.55 µM [activator, single point]
53 | O=C(CSc1nnc(NC(=O)c2ccccc2)s1)NCC1CCCO1 (stereo not given) | inconclusive: 15.8 µM [activator, single point]
54 | Cc1cccc(Nc2nc(N)nc(CCl)n2)c1 | active: 14.1 µM
55 | c1csc(-c2nc3ccccn3c2Nc2ccc3c(c2)OCCO3)c1 | inactive
56 | Cc1cccc(NS(=O)(=O)c2ccc(Cl)c(C(=O)Nc3ccccc3C)c2)c1 | inactive
57 | Cn1c(Nc2ccc(Cl)cc2F)nc2cc(-c3ccccc3)sc2c1=O | inconclusive: 15.8 µM [activator, single point]
58 | Cc1cc(/C=C2\SC(=S)NC2=O)c(C)n1-c1ccccc1 | inactive
59 | C/C(=N\NC(=O)c1ccc(O)cc1)c1cccc(NC(=O)c2ccc(Cl)cc2)c1 | inactive
60 | N#Cc1c(-c2ccco2)cc(C2CC2)nc1N | inconclusive: 12.6 µM [activator, partial curve, poor fit]
61 | O=C(COC(=O)/C=C/c1ccc(OC(F)F)cc1)NC1CCCC1 | inactive
62 | Cc1ccc2nc(N3C(=O)C(O)=C(C(=O)c4ccc(C)o4)C3c3cccc(O)c3)sc2c1 (stereo not given) | inactive
63 | CC(=O)c1ccc(Nc2nc3ccccc3nc2-n2nc(C)cc2C)cc1 | inactive
64 | O=C(Nc1cccc(NC(=O)c2cccs2)c1)c1ccc(F)cc1 | inconclusive: 0.562 µM [activator, full curve, poor fit]
65 | CC(=O)C(/C=N/c1cc(-c2ccc(C)cc2)nn1-c1ccccc1)=C(\C)O | inactive
66 | CN(C)c1ccc(NC2=C([N+](=O)[O-])CS(=O)(=O)C2)cc1 | inconclusive: 22.4 µM [activator, single point]
67 | CSc1nc(N)n2nc(-c3ccccc3)cc2n1 | active: 7.94 µM
68 | CCCn1nc(C(=O)Nc2ccc(S(=O)(=O)Nc3nccs3)cc2)c2ccccc2c1=O | inactive
69 | Cc1cc(Sc2nc(NC(C)C)nc(NC(C)C)n2)nc(Cl)n1 | inconclusive: 12.6 µM [activator, partial curve]
70 | O=C(NNC(=O)c1nc(Cl)ccc1Cl)c1ccc(F)cc1 | inconclusive: 10 µM [activator, partial curve, poor fit]
